According to publication PMC6919601, “Identification of Plasmodium dipeptidyl aminopeptidase allosteric inhibitors by high throughput screening” (PLoS ONE, 2019):
Where “and” joins values, the source holds several entries; their conditions need not be identical. Equal entries are not always repeated. Screen size: about 110,000 compounds; about 230 (0.21%) showed an effect of 50% or more. The list shows a part of the results.

molecular target: DPAP1 (Plasmodium falciparum, UniProt Q8IIJ9); assay: primary screen, percent inhibition; read by cleavage of a fluorogenic dipeptide substrate; higher = more effect of the substance; set-up: species or system P. falciparum D10 trophozoite lysates; single well
Sequence (Q8IIJ9 whole entry, looked up): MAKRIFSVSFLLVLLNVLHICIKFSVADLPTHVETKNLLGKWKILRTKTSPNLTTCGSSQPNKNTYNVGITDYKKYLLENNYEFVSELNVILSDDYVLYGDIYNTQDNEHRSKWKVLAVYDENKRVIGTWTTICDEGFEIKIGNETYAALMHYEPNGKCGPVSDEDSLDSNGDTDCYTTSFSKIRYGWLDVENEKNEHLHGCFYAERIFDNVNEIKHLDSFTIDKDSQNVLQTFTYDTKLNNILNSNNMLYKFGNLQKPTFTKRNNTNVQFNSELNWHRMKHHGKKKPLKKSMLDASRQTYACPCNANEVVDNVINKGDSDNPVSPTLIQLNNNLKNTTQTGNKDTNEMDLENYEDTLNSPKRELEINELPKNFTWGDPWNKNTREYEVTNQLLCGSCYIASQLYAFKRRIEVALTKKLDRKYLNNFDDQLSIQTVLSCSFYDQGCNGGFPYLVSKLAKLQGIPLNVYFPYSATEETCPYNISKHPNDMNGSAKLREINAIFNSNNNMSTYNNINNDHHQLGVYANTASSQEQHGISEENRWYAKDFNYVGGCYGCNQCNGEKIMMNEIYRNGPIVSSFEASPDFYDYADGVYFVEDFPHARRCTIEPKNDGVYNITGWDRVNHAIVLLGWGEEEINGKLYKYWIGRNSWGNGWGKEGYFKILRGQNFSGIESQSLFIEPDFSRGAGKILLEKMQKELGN
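Also: 30 min substrate incubation versus DMSO and 10 µM JCP410 controls.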

Compound | % Inhibition @ 10 uM
COc1cccc2cc(-c3nc(-c4ccc(-n5cccc5)cc4)no3)c(=O)oc12 | -2.19%
CC(Nc1cc(C)ccn1)=C(C#N)C#N | -0.406%
COc1cc(-c2cc(C(=O)O)c3ccccc3n2)ccc1O | -4.67%
O=C1CC(c2ccccc2)CC(=O)C1=CNCCC(c1ccccc1)c1ccccc1 (stereo not drawn) | -0.357%
CCN(CC)CCN(C(=O)Cc1ccccc1)c1nc2ccc(C)cc2s1 | 0.233%
COc1cc(CNC(=O)c2ccc(C(=O)c3ccccc3)cc2)cc(OC)c1OC | -0.891%
CC1CCN(C(=O)CN(C)S(=O)(=O)c2cc(Cl)ccc2Cl)CC1 | 1.88%
CC1(C)Cc2nc3ccccc3c(NCc3ccccc3)c2C(O)C1 (stereo not drawn) | 5%
CCCCSC1=C(C#N)C(=O)NC(c2ccc(OC)c(OC)c2)S1 (stereo not drawn) | 1.72%
CCn1ncc(C(=O)Nc2ccc(S(=O)(=O)N3CCCC3)cc2)c1C | -0.63%
Cc1ccc(OCCCCCN2CCCCC2)cc1C | 1.35%
COCCC/N=C/c1c(C)nn(-c2ccc(Cl)cc2)c1O | 3.39%
N#CC1=C(N)C(C#N)(C#N)C(c2ccco2)C2CCCC=C12 (stereo not drawn) | -2.37%
CCCc1[nH]nc2c1C(c1ccc(Br)s1)C(C#N)=C(N)O2 (stereo not drawn) | -2.16%
COc1ccc(Cn2c(-c3ccc(OC)cc3)nc3ccccc32)cc1 | 2.41%
COc1cc(-n2c(C)nc3cc(C(=O)NCC4CCCO4)ccc32)cc(OC)c1OC (stereo not drawn) | -2.17%
CN1C(=O)c2ccccc2C(O)c2ccccc21 (stereo not drawn) | -3.97%
CN(Cc1ccccc1)C(=O)CNS(=O)(=O)c1cccs1 | 0.287%
O=C(O)COCC(=O)NCCOc1ccccc1 | -2.19%
COc1cc(C)c(S(=O)(=O)n2ccc(C)n2)cc1C | -4.62%
CN1C2CCC1CC(NCCc1ccccc1)C2 (stereo not drawn) | 0.986% and 3%
O=C1N=C(N2CCOCC2)S/C1=C\c1ccccc1Cl | 3.72%

Compound | % Inhibition @ 10 uM
COc1cccc(-c2nc(O)c3c(n2)Oc2ccc(Cl)cc2C3)c1O | 6.98%
Cc1nn(CC(=O)NC(C)CCc2ccccc2)c(=O)c2cc3cc(F)ccc3n12 (stereo not drawn) | 7.81%
CCCCC(=O)Nc1nn(C)c2nc(C)cc(C)c12 | 13.4%
Cc1cc(C)cc(OCCNC(=O)C(C(C)C)N2C(=O)c3ccccc3C2=O)c1 (stereo not drawn) | 2.38%
CCCOc1ccc(-c2cn3ccccc3n2)cc1 | 0.964%
Cc1ccc(CNC(=O)CCC(=O)n2ncc3c(C)cccc32)cc1 | 3.29%
Cc1ccc(S(=O)(=O)Cc2nc3ccccc3s2)cc1 | -6.07%
O=C(Nc1ccccc1C(=O)NO)c1cccnc1 | 2.41%
Cc1ccc(Oc2nc3c(C)cccn3c(=O)c2/C=C(\C#N)C(=O)N2CCCCC2)cc1 | 3.63%
O=C(CSc1ccc2nnc(-c3cccc(F)c3)n2n1)NCc1ccccc1 | 5.09%
CCn1c(SCC(=O)c2ccc(OC)cc2)nc2sc(C)c(C)c2c1=O | -2.53%
CC(=O)NCCNc1nc2c(S(=O)(=O)c3ccc(C)cc3)nnn2c2ccccc12 | -1.37%
O=C1C2(c3ccccc3)CN3CC1(c1ccccc1)CN(C2)C3c1cccnc1 (stereo not drawn) | -1.47%
CCCCCSc1nc(N2CCOCC2)c2c(c1C#N)CCCC2 | -4.7%
CCOc1ccccc1NC(=O)CN(c1cc(C)ccc1C)S(=O)(=O)c1ccccc1 | 3.66%
O=C(NCc1ccccc1)c1cc2ccccc2s1 | -6.44%
COc1cccc(C2=NOC(C(=O)NCc3ccc(F)cc3)C2)c1OC (stereo not drawn) | -2.16%
O=[N+]([O-])c1ccccc1S(=O)(=O)NC1CCCC1 | -0.999%
O=C1c2ccccc2C(=O)N1CCOc1cccc(Cl)c1 | -10.2%
COc1ccc(NC(=O)c2c(NCc3cccs3)sc3c2CCC3)c(OC)c1 | 1.71%
C=CCc1c(C)nc2nc(SCC(=O)NCc3ccccc3)nn2c1C | -7.85%
CCc1nc(C)cc(CN(C)C)c1O | -6.52%

Compound | % Inhibition @ 10 uM
O=C(NCCc1nc(-c2ccccc2)cs1)C1(c2ccccc2)CC1 | 0.503%
Cn1c(=O)c2c(nc(O)n2Cc2ccc(Cl)cc2Cl)n(C)c1=O | 3.27%
CCn1c(Oc2ccc(Oc3ncc(Cl)cc3Cl)cc2)nc2c1c(=O)n(C)c(=O)n2C | -4.91%
Cn1nc(-c2ccc(C(F)(F)F)cc2)nc2c(=O)n(C)c(=O)nc1-2 | 0.569%
CC(=O)N1N=C(C)CC1c1ccc(OCc2ccccc2)cc1 (stereo not drawn) | 10.9%
CC1(C)Cc2nc3sc4c(NCC5CCCO5)ncnc4c3cc2CO1 (stereo not drawn) | 2.56%
Cc1cc(O)n2ncc(C(=O)O)c2n1 | 0.635%
COc1ccc(CCNC(=O)CCn2c(=O)c3cccn3c3cccnc32)c(OC)c1 | 0.951%
Cc1ccc(-c2csc(NC(=O)c3ccc4c(c3)OCO4)n2)cc1 | -3.75%
CC(CNC(=O)c1cnc(N2CCCC2)nc1)c1ccccc1 (stereo not drawn) | 0.44%
Cc1cc(C)cc(NC(=O)CN(c2cccc(C(F)(F)F)c2)S(C)(=O)=O)c1 | -1.65%
COc1ccc(CNC(=O)CN(c2ccc(OC)c(Cl)c2)S(C)(=O)=O)cc1 | 2.6%
O=C(COc1ccccc1F)N1CCc2ccccc2C1 | 4.33%
COc1ccc(C(=O)Nc2ccc(-c3noc(-c4ccc(F)cc4)n3)cc2)cc1 | -7.62%
COCc1cc(C)nc(SCC(=O)Nc2cc(C)c(C)cc2Br)c1C#N | -2.24%
COc1ccc2nc3sc(C(=O)NCCCN4CCc5ccccc5C4)cc3cc2c1 | 64.7%
O=[N+]([O-])c1cc(C(F)(F)F)ccc1-n1cncn1 | 2.47%
O=C(COc1ccc(S(=O)(=O)NCc2ccccc2)cc1)Nc1ccc(Cl)c(Cl)c1 | -2.29%
Oc1ccccc1C1CC(c2ccccc2)=NN1 (stereo not drawn) | -0.424%
CC(=O)N(CCCN(C)C)c1nc2cc3c(cc2s1)OCO3 | -1.07%
CCN(CCCNC(=O)c1ccc2nc(N3CCCCC3)sc2c1)Cc1ccccc1 | 1.03%
O/C(=C\c1nc2nonc2nc1O)c1ccc(Cl)cc1 | 2.97%
